{"source": "the supplement of paper PMC8728848", "assay_in_all_cases": "glycan array binding signal (z-score within array); higher = stronger binding", "conditions_in_all_cases": "glycan notation: IUPAC condensed, linker removed", "key": {"Gal(a1-3)Gal(b1-4)GlcNAc": {"target": "Gal(a1-3)Gal(b1-4)GlcNAc", "procedure,_shortened": "(§1)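 From the Consortium for Functional Glycomics database, 3228 arrays were curated, keeping only those whose protein sequence was available. Binding is given as a within-array Z-score averaged across arrays sharing a protein sequence and across linkers. Negative Z-scores can be read as non-binding.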"}, "[1]": {"target": "Gal(a1-3)Gal(b1-4)GlcNAc(b1-3)GalNAc", "procedure,_shortened": "as §1"}, "[2]": {"target": "Gal(a1-3)Gal(b1-4)[Fuc(a1-3)]GalNAc", "procedure,_shortened": "as §1"}, "[3]": {"target": "Gal(a1-3)Gal(b1-4)[Fuc(a1-3)]GlcNAc", "procedure,_shortened": "as §1"}, "[4]": {"target": "Gal(a1-3)Gal(b1-4)[Fuc(a1-3)]GlcNAc(b1-2)Man(a1-3)[Gal(a1-3)Gal(b1-4)[Fuc(a1-3)]GlcNAc(b1-2)Man(a1-6)]Man(b1-4)GlcNAc(b1-4)GlcNAc", "procedure,_shortened": "as §1"}, "Gal(a1-3)GalNAc": {"target": "Gal(a1-3)GalNAc", "procedure,_shortened": "as §1"}, "Gal(a1-3)GlcNAc": {"target": "Gal(a1-3)GlcNAc", "procedure,_shortened": "as §1"}, "[5]": {"target": "Gal(a1-3)[Gal(a1-4)]Gal(b1-4)GlcNAc", "procedure,_shortened": "as §1"}, "[6]": {"target": "Gal(a1-4)Gal(b1-3)GlcNAc(b1-2)Man(a1-3)[Gal(a1-4)Gal(b1-3)GlcNAc(b1-2)Man(a1-6)]Man(b1-4)GlcNAc(b1-4)GlcNAc", "procedure,_shortened": "as §1"}, "Gal(a1-4)Gal(b1-4)Gal": {"target": "Gal(a1-4)Gal(b1-4)Gal", "procedure,_shortened": "as §1"}, "Gal(a1-4)Gal(b1-4)GalNAc": {"target": "Gal(a1-4)Gal(b1-4)GalNAc", "procedure,_shortened": "as §1"}, "Gal(a1-4)Gal(b1-4)Glc": {"target": "Gal(a1-4)Gal(b1-4)Glc", "procedure,_shortened": "as §1"}, "Gal(a1-4)Gal(b1-4)GlcNAc": {"target": "Gal(a1-4)Gal(b1-4)GlcNAc", "procedure,_shortened": "as §1"}, "[7]": {"target": "Gal(a1-4)Gal(b1-4)GlcNAc(b1-2)Man(a1-3)[Gal(a1-4)Gal(b1-4)GlcNAc(b1-2)Man(a1-6)]Man(b1-4)GlcNAc(b1-4)GlcNAc", "procedure,_shortened": "as §1"}, "[8]": {"target": "Gal(a1-4)Gal(b1-4)GlcNAc(b1-3)Gal(b1-4)Glc", "procedure,_shortened": "as §1"}, "Gal(a1-4)GlcNAc": {"target": "Gal(a1-4)GlcNAc", "procedure,_shortened": "as §1"}, "Gal(a1-6)Glc": {"target": "Gal(a1-6)Glc", "procedure,_shortened": "as §1"}, "Gal(b1-2)Gal": {"target": "Gal(b1-2)Gal", "procedure,_shortened": "as §1"}, "Gal(b1-3)Gal": {"target": "Gal(b1-3)Gal", "procedure,_shortened": "as §1"}, "Gal(b1-3)Gal(b1-4)GlcNAc": {"target": "Gal(b1-3)Gal(b1-4)GlcNAc", "procedure,_shortened": "as §1"}, "[9]": {"target": "Gal(b1-3)Gal(b1-4)GlcNAc(b1-2)Man(a1-3)[Gal(b1-3)Gal(b1-4)GlcNAc(b1-2)Man(a1-6)]Man(b1-4)GlcNAc(b1-4)GlcNAc", "procedure,_shortened": "as §1"}, "Gal(b1-3)GalNAc": {"target": "Gal(b1-3)GalNAc", "procedure,_shortened": "as §1"}, "[10]": {"target": "Gal(b1-3)GalNAc(a1-3)[Fuc(a1-2)]Gal(b1-4)Glc", "procedure,_shortened": "as §1"}, "[11]": {"target": "Gal(b1-3)GalNAc(a1-3)[Fuc(a1-2)]Gal(b1-4)GlcNAc", "procedure,_shortened": "as §1"}, "[12]": {"target": "Gal(b1-3)GalNAc(b1-3)Gal(a1-4)Gal(b1-4)Glc", "procedure,_shortened": "as §1"}, "[13]": {"target": "Gal(b1-3)GalNAc(b1-3)Gal(b1-4)Glc", "procedure,_shortened": "as §1"}, "[14]": {"target": "Gal(b1-3)GalNAc(b1-3)Gal(b1-4)GlcNAc", "procedure,_shortened": "as §1"}, "[15]": {"target": "Gal(b1-3)GalNAc(b1-4)Gal(b1-4)Glc", "procedure,_shortened": "as §1"}, "[16]": {"target": "Gal(b1-3)GalNAc(b1-4)[Neu5Ac(a2-3)]Gal(b1-4)Glc", "procedure,_shortened": "as §1"}, "Gal(b1-3)GlcNAc": {"target": "Gal(b1-3)GlcNAc", "procedure,_shortened": "as §1"}, "[17]": {"target": "Gal(b1-3)GlcNAc(a1-6)Gal(b1-4)GlcNAc", "procedure,_shortened": "as §1"}, "[18]": {"target": "Gal(b1-3)GlcNAc(b1-2)Man(a1-3)[Gal(b1-3)GlcNAc(b1-2)Man(a1-6)]Man(b1-4)GlcNAc(b1-4)GlcNAc", "procedure,_shortened": "as §1"}, "[19]": {"target": "Gal(b1-3)GlcNAc(b1-2)Man(a1-3)[Gal(b1-3)GlcNAc(b1-2)Man(a1-6)]Man(b1-4)GlcNAc(b1-4)[Fuc(a1-6)]GlcNAc", "procedure,_shortened": "as §1"}, "[20]": {"target": "Gal(b1-3)GlcNAc(b1-2)[Gal(b1-3)GlcNAc(b1-6)]Man(a1-6)[Gal(b1-3)GlcNAc(b1-2)Man(a1-3)]Man(b1-4)GlcNAc(b1-4)GlcNAc", "procedure,_shortened": "as §1"}, "[21]": {"target": "Gal(b1-3)GlcNAc(b1-3)Gal(b1-3)GlcNAc", "procedure,_shortened": "as §1"}, "[22]": {"target": "Gal(b1-3)GlcNAc(b1-3)Gal(b1-4)Glc", "procedure,_shortened": "as §1"}, "[23]": {"target": "Gal(b1-3)GlcNAc(b1-3)Gal(b1-4)GlcNAc", "procedure,_shortened": "as §1"}, "[24]": {"target": "Gal(b1-3)GlcNAc(b1-3)Gal(b1-4)GlcNAc(b1-6)[Gal(b1-3)GlcNAc(b1-3)]Gal(b1-4)Glc", "procedure,_shortened": "as §1"}}, "note": "The other results are listed elsewhere or left out.", "data": [{"binder": "AAL (Aleuria aurantia), P18891 (protein) PTEFLYTSKIAAISWAATGGRQQRVYFQDLNGKIREAQRGGDNPWTGGSSQNVIGEAKLFSPLAAVTWKSAQGIQIRVYCVNKDNILSEFVYDGSKWITGQLGSVGVKVGSNSKLAALQWGGSESAPPNIRVYYQKSNGSGSSIHEYVWSGKWTAGASFGSTVPGTGIGATAIGPGRLRIYYQATDNKIREHCWDSNSWYVGGFSASASAGVSIAAISWGSTPNIRVYWQKGREELYEAAYGGSWNTPGQIKDASRPTPSLPDTFIAANSSGNIDISVFFQASGVSLQQWQWISGKGWSIGAVVPTGTPAGW", "values": [{"measurement": "glycan array binding signal (z-score)", "setting": "Gal(a1-3)Gal(b1-4)GlcNAc", "result": -0.517}, {"measurement": "glycan array binding signal (z-score)", "setting": "[1]", "result": -0.439}, {"measurement": "glycan array binding signal (z-score)", "setting": "[2]", "result": 2.52}, {"measurement": "glycan array binding signal (z-score)", "setting": "[3]", "result": 1.32}, {"measurement": "glycan array binding signal (z-score)", "setting": "[4]", "result": 0.279}, {"measurement": "glycan array binding signal (z-score)", "setting": "Gal(a1-3)GalNAc", "result": -0.462}, {"measurement": "glycan array binding signal (z-score)", "setting": "Gal(a1-3)GlcNAc", "result": -0.624}, {"measurement": "glycan array binding signal (z-score)", "setting": "[5]", "result": -0.501}, {"measurement": "glycan array binding signal (z-score)", "setting": "[6]", "result": -0.418}, {"measurement": "glycan array binding signal (z-score)", "setting": "Gal(a1-4)Gal(b1-4)Gal", "result": -0.611}, {"measurement": "glycan array binding signal (z-score)", "setting": "Gal(a1-4)Gal(b1-4)GalNAc", "result": -0.646}, {"measurement": "glycan array binding signal (z-score)", "setting": "Gal(a1-4)Gal(b1-4)Glc", "result": -0.488}, {"measurement": "glycan array binding signal (z-score)", "setting": "Gal(a1-4)Gal(b1-4)GlcNAc", "result": -0.472}, {"measurement": "glycan array binding signal (z-score)", "setting": "[7]", "result": -0.43}, {"measurement": "glycan array binding signal (z-score)", "setting": "[8]", "result": -0.418}, {"measurement": "glycan array binding signal (z-score)", "setting": "Gal(a1-4)GlcNAc", "result": -0.498}, {"measurement": "glycan array binding signal (z-score)", "setting": "Gal(a1-6)Glc", "result": -0.515}, {"measurement": "glycan array binding signal (z-score)", "setting": "Gal(b1-2)Gal", "result": -0.493}, {"measurement": "glycan array binding signal (z-score)", "setting": "Gal(b1-3)Gal", "result": -0.522}, {"measurement": "glycan array binding signal (z-score)", "setting": "Gal(b1-3)Gal(b1-4)GlcNAc", "result": -0.411}, {"measurement": "glycan array binding signal (z-score)", "setting": "[9]", "result": -0.353}, {"measurement": "glycan array binding signal (z-score)", "setting": "Gal(b1-3)GalNAc", "result": -0.481}, {"measurement": "glycan array binding signal (z-score)", "setting": "[10]", "result": -0.418}, {"measurement": "glycan array binding signal (z-score)", "setting": "[11]", "result": -0.421}, {"measurement": "glycan array binding signal (z-score)", "setting": "[12]", "result": -0.514}, {"measurement": "glycan array binding signal (z-score)", "setting": "[13]", "result": -0.595}, {"measurement": "glycan array binding signal (z-score)", "setting": "[14]", "result": -0.602}, {"measurement": "glycan array binding signal (z-score)", "setting": "[15]", "result": -0.504}, {"measurement": "glycan array binding signal (z-score)", "setting": "[16]", "result": -0.511}, {"measurement": "glycan array binding signal (z-score)", "setting": "Gal(b1-3)GlcNAc", "result": -0.476}, {"measurement": "glycan array binding signal (z-score)", "setting": "[17]", "result": -0.421}, {"measurement": "glycan array binding signal (z-score)", "setting": "[18]", "result": -0.414}, {"measurement": "glycan array binding signal (z-score)", "setting": "[19]", "result": 1.15}, {"measurement": "glycan array binding signal (z-score)", "setting": "[20]", "result": -0.419}, {"measurement": "glycan array binding signal (z-score)", "setting": "[21]", "result": -0.365}, {"measurement": "glycan array binding signal (z-score)", "setting": "[22]", "result": -0.397}, {"measurement": "glycan array binding signal (z-score)", "setting": "[23]", "result": -0.482}, {"measurement": "glycan array binding signal (z-score)", "setting": "[24]", "result": -0.431}]}]}
